Results: ChEMBL document CHEMBL5724801, “EUbOPEN Chemogenomics Library - Multiplex” (2024)

What was measured:
Type in all cases: toxicity, cell-based
Fibroblast = test: Multiplex assay against human fibroblast
Procedure, shortened: (§1)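 Cells stained live at seeding with Hoechst33342, BioTracker Green Microtubule Cytoskeleton Dye, MitoTracker Red and Annexin V Alexa Fluor 680 were imaged on a CQ1 microscope at 37°C and 5% CO2 after compound addition. Their classification by CellPathfinder machine-learning gating ran from Hoechst high-intensity objects versus normal cells, to healthy, pyknosed or fragmented nuclei among normal cells, to mitotic or apoptotic among pyknosed cells. Tubulin, mitochondrial-mass and membrane-permeability phenotypes are per cents of healthy-nucleus cells.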

U2OS = test: Multiplex assay against U2OS; conditions: human; procedure, shortened: as §1
HEK-293T = test: Multiplex assay against HEK293T; conditions: human; procedure, shortened: as §1
[1] = 12 h, 1 µM, compound concentration 1 uM
[2] = 12 h, 10 µM, compound concentration 10 uM
[3] = 24 h, 10 µM, compound concentration 10 uM
[4] = 48 h, 10 µM, compound concentration 10 uM
[5] = 24 h, 1 µM, compound concentration 1 uM
[6] = 48 h, 1 µM, compound concentration 1 uM

`O=C1N=C(NCc2cccs2)S/C1=C\c1ccc2ncccc2c1` was tested, and the “Population Fragmented Nuclei (%)” value (Fibroblast; [1]) was 13.04% and 2.96%, the “Population Fragmented Nuclei (%)” value (Fibroblast; [2]) was 20.38% and 6.63% and the “Population Mitochondria Different-Phenotype (%)” value (U2OS; [1]) was 0.51% and 14.47%. The “Population Mitochondria Different-Phenotype (%)” value (U2OS; [2]) was 0.36% and 48.82%, the “Population Mitochondria Different-Phenotype (%)” value (U2OS; [3]) was 2.64% and 44.04% and the “Population Mitochondria Different-Phenotype (%)” value (U2OS; [4]) was 1.68% and 38.46%. For the same compound, the “Population Tubulin-Different-Phenotype (%)” value (U2OS; [4]) was 13.41% and 2.2%, the “Population Healthy Nuclei (%)” value (HEK-293T; [1]) was 55.63% and 16.06% and the “Population Tubulin-Different-Phenotype (%)” value (HEK-293T; [1]) was 6.36% and 31.82%. For the same compound, the “Total Cell Count” value (HEK-293T; [5]) was 425 and 139, the “Population Tubulin-Different-Phenotype (%)” value (HEK-293T; [6]) was 2.51% and 34.78% and the “Total Cell Count” value (HEK-293T; [6]) was 778 and 200. The “Population Pyknosed Nuclei (%)” value (HEK-293T; [4]) was 6.91% and 37.91% and the “Population Tubulin-Different-Phenotype (%)” value (HEK-293T; [4]) was 15.69% and 78.16%.
`CCn1c(-c2nc3cc(C(=O)N4CCCC(N)C4)ccc3n2C)cc2ccccc21.Cl` (centres undefined) was tested, and the “Population Apoptotic (%)” value (Fibroblast; [1]) was 63% and 32% and 6.12%, 22.58% [2024-01], the “Population Mitochondria Different-Phenotype (%)” value (Fibroblast; [1]) was 4% and 17% and 9.28%, 12.12% [2024-01] and the “Population Apoptotic (%)” value (Fibroblast; [2]) was 41% and 38% and 10.84%, 28.57% [2024-01]. For the same compound, the “Population Fragmented Nuclei (%)” value (Fibroblast; [2]) was 22% and 32% and 5.7%, 7.17% [2024-01], the “Population Apoptotic (%)” value (Fibroblast; [5]) was 50% and 55% and 0%, 29.41% [2024-01] and the “Population Mitochondria Different-Phenotype (%)” value (Fibroblast; [5]) was 5% and 20% and 9.3%, 4.12% [2024-01]. For the same compound, the “Population Apoptotic (%)” value (Fibroblast; [3]) was 70% and 59% and 20.55%, 54.9% [2024-01], the “Population Fragmented Nuclei (%)” value (Fibroblast; [3]) was 22% and 30% and 5.75%, 5.78% [2024-01] and the “Population Apoptotic (%)” value (Fibroblast; [6]) was 66% and 51% and 7.69%, 73.33% [2024-01]. The “Population Fragmented Nuclei (%)” value (Fibroblast; [6]) was 23% and 32% and 14.35%, 9.35% [2024-01], the “Population Mitochondria Different-Phenotype (%)” value (Fibroblast; [6]) was 3% and 23% and 16.28%, 4.47% [2024-01] and the “Population Mitotic Cells (%)” value (Fibroblast; [6]) was 33% and 48% and 92.31%, 26.67% [2024-01]. For the same compound, the “Population Tubulin-Different-Phenotype (%)” value (Fibroblast; [6]) was 29% and 49% and 6.4%, 21.79% [2024-01], the “Population Fragmented Nuclei (%)” value (Fibroblast; [4]) was 19% and 33% and 10.51%, 6.58% [2024-01] and the “Population Mitotic Cells (%)” value (Fibroblast; [4]) was 16% and 40% and 63.64%, 23.08% [2024-01]. The “Population Apoptotic (%)” value (U2OS; [1]) was 61% and 100% and 38.1%, 30.77% [2024-01], the “Population Fragmented Nuclei (%)” value (U2OS; [1]) was 22% and 18% and 0.93%, 3.17% [2024-01] and the “Population Mitochondria Different-Phenotype (%)” value (U2OS; [1]) was 3% and 18% and 1.05%, 12.1% [2024-01]. For the same compound, the “Population Mitotic Cells (%)” value (U2OS; [1]) was 38% and 0% and 61.9%, 69.23% [2024-01], the “Population Pyknosed Nuclei (%)” value (U2OS; [1]) was 9% and 3% and 9.81%, 13.76% [2024-01] and the “Total Cell Count” value (U2OS; [1]) was 213 and 90 and 428, 189 [2024-01]. The “Population Fragmented Nuclei (%)” value (U2OS; [2]) was 24% and 21% and 2%, 4.85% [2024-01], the “Population Membrane Permeable-Phenotype (%)” value (U2OS; [2]) was 34% and 25% and 1.53%, 9.91% [2024-01] and the “Population Mitochondria Different-Phenotype (%)” value (U2OS; [2]) was 29% and 55% and 6.9%, 53.15% [2024-01]. The “Population Fragmented Nuclei (%)” value (U2OS; [5]) was 22% and 25% and 1.33%, 2.14% [2024-01], the “Population Membrane Permeable-Phenotype (%)” value (U2OS; [5]) was 6% and 14% and 1.44%, 2.03% [2024-01] and the “Population Mitochondria Different-Phenotype (%)” value (U2OS; [5]) was 3% and 13% and 0.9%, 7.11% [2024-01]. The “Population Mitotic Cells (%)” value (U2OS; [5]) was 17% and 33% and 64.1%, 62.5% [2024-01], the “Population Tubulin-Different-Phenotype (%)” value (U2OS; [5]) was 3% and 13% and 1.08%, 1.02% [2024-01] and the “Total Cell Count” value (U2OS; [5]) was 249 and 112 and 602, 234 [2024-01]. The “Population Fragmented Nuclei (%)” value (U2OS; [3]) was 27% and 19% and 4.23%, 2.81% [2024-01], the “Population Membrane Permeable-Phenotype (%)” value (U2OS; [3]) was 16% and 20% and 1.19%, 3.91% [2024-01] and the “Population Mitochondria Different-Phenotype (%)” value (U2OS; [3]) was 34% and 53% and 6.27%, 58.59% [2024-01]. For the same compound, the “Total Cell Count” value (U2OS; [3]) was 288 and 146 and 449, 178 [2024-01], the “Population Fragmented Nuclei (%)” value (U2OS; [6]) was 16% and 22% and 1.68%, 2.29% [2024-01] and the “Total Cell Count” value (U2OS; [6]) was 354 and 145 and 1014, 393 [2024-01]. The “Population Fragmented Nuclei (%)” value (U2OS; [4]) was 26% and 18% and 5.29%, 4.45% [2024-01], the “Population Membrane Permeable-Phenotype (%)” value (U2OS; [4]) was 23% and 24% and 1.31%, 3.87% [2024-01] and the “Population Mitochondria Different-Phenotype (%)” value (U2OS; [4]) was 22% and 39% and 2.24%, 27.07% [2024-01]. The “Total Cell Count” value (U2OS; [4]) was 353 and 173 and 699, 248 [2024-01], the “Population Apoptotic (%)” value (HEK-293T; [1]) was 54% and 47% and 4.17%, 12.6% [2024-01] and the “Population Healthy Nuclei (%)” value (HEK-293T; [1]) was 77% and 81% and 53.95%, 12.58% [2024-01]. For the same compound, the “Population Pyknosed Nuclei (%)” value (HEK-293T; [1]) was 13% and 44.21%, 84.11% [2024-01], the “Population Tubulin-Different-Phenotype (%)” value (HEK-293T; [1]) was 33% and 20% and 4.88%, 21.05% [2024-01] and the “Population Apoptotic (%)” value (HEK-293T; [2]) was 53% and 13.68%, 30.3% [2024-01]. For the same compound, the “Population Healthy Nuclei (%)” value (HEK-293T; [2]) was 74% and 78% and 39.45%, 11.92% [2024-01], the “Population Mitochondria Different-Phenotype (%)” value (HEK-293T; [2]) was 85% and 32.56%, 22.22% [2024-01] and the “Population Pyknosed Nuclei (%)” value (HEK-293T; [2]) was 17% and 15% and 58.1%, 87.42% [2024-01]. For the same compound, the “Population Apoptotic (%)” value (HEK-293T; [5]) was 35% and 39% and 7.3%, 22.73% [2024-01], the “Population Pyknosed Nuclei (%)” value (HEK-293T; [5]) was 10% and 11% and 27.68%, 71.43% [2024-01] and the “Total Cell Count” value (HEK-293T; [5]) was 459 and 383 and 496, 154 [2024-01]. For the same compound, the “Population Fragmented Nuclei (%)” value (HEK-293T; [3]) was 11% and 8% and 2.29%, 0.72% [2024-01], the “Population Healthy Nuclei (%)” value (HEK-293T; [3]) was 70% and 78% and 64.38%, 17.39% [2024-01] and the “Population Pyknosed Nuclei (%)” value (HEK-293T; [3]) was 18% and 13% and 33.33%, 81.88% [2024-01]. The “Total Cell Count” value (HEK-293T; [3]) was 449 and 471 and 393, 138 [2024-01], the “Population Apoptotic (%)” value (HEK-293T; [6]) was 20% and 14% and 4.76%, 24.1% [2024-01] and the “Population Pyknosed Nuclei (%)” value (HEK-293T; [6]) was 8% and 5% and 11.73%, 42.56% [2024-01]. The “Population Tubulin-Different-Phenotype (%)” value (HEK-293T; [6]) was 17% and 11% and 1.75%, 42.86% [2024-01], the “Total Cell Count” value (HEK-293T; [6]) was 771 and 640 and 1253, 195 [2024-01] and the “Population Fragmented Nuclei (%)” value (HEK-293T; [4]) was 14% and 10% and 3.07%, 3.09% [2024-01]. The “Population Hoechst High Intensity Objects (%)” value (HEK-293T; [4]) was 15% and 8% and 0.14%, 2.41% [2024-01], the “Population Pyknosed Nuclei (%)” value (HEK-293T; [4]) was 12% and 9% and 19.39%, 36.42% [2024-01] and the “Population Tubulin-Different-Phenotype (%)” value (HEK-293T; [4]) was 63% and 15.29%, 81.63% [2024-01]. For the same compound, the “Total Cell Count” value (HEK-293T; [4]) was 605 and 613 and 718, 166 [2024-01].
With `S=c1[nH]nc(-c2cccs2)n1-c1ccccc1` the “Population Fragmented Nuclei (%)” value (Fibroblast; [2]) was 18.22% and 5.29%, the “Population Apoptotic (%)” value (Fibroblast; [5]) was 6.45% and 23.81% and the “Population Tubulin-Different-Phenotype (%)” value (Fibroblast; [6]) was 2.31% and 17.65%. For the same compound, the “Population Tubulin-Different-Phenotype (%)” value (Fibroblast; [4]) was 6.44% and 21.26%, the “Total Cell Count” value (U2OS; [6]) was 1053 and 318 and the “Total Cell Count” value (U2OS; [4]) was 971 and 314. For the same compound, the “Population Healthy Nuclei (%)” value (HEK-293T; [1]) was 53.58% and 14.84%, the “Population Tubulin-Different-Phenotype (%)” value (HEK-293T; [1]) was 7.64% and 43.48% and the “Population Healthy Nuclei (%)” value (HEK-293T; [2]) was 58.88% and 16.9%. The “Population Mitochondria Different-Phenotype (%)” value (HEK-293T; [2]) was 40.7% and 12.5%, the “Population Healthy Nuclei (%)” value (HEK-293T; [5]) was 72.88% and 24.18% and the “Population Healthy Nuclei (%)” value (HEK-293T; [3]) was 75.05% and 24.64%. The “Population Pyknosed Nuclei (%)” value (HEK-293T; [3]) was 23.17% and 72.46%, the “Total Cell Count” value (HEK-293T; [3]) was 505 and 138 and the “Population Apoptotic (%)” value (HEK-293T; [6]) was 5.93% and 22.39%. For the same compound, the “Population Pyknosed Nuclei (%)” value (HEK-293T; [6]) was 10.01% and 32.21%, the “Population Tubulin-Different-Phenotype (%)” value (HEK-293T; [6]) was 1.78% and 46.04% and the “Total Cell Count” value (HEK-293T; [6]) was 1349 and 208. For the same compound, the “Population Pyknosed Nuclei (%)” value (HEK-293T; [4]) was 10.33% and 33.13%, the “Population Tubulin-Different-Phenotype (%)” value (HEK-293T; [4]) was 1.32% and 29.13% and the “Total Cell Count” value (HEK-293T; [4]) was 1220 and 163.

For part of its entries the source gives two or more results. Only these are listed. An entry can have further records. Values that stand side by side are repeated measurements in other runs, samples, wells, individuals or studies. Dates in brackets are months of testing.
